According to PubChem BioAssay AID651820 (National Center for Advancing Translational Sciences (NCATS), 2012):
The campaign covered roughly 340,000 compounds. About 12,000 (3.5%) were called active. The inconclusive results got no clear call from the source; some entries with a clear call stand among them for comparison. Calls come from the whole dose curve; as a rule, active = well fitted inhibition curve with a large enough effect; inconclusive = small, poorly fitted or top-dose-only effect, or another doubt; inactive = no such curve, though single readings can be large or run the other way. Potencies of inconclusive entries are left out as doubtful fits.
% is set by controls: 0 for no effect and ±100 for the full control effect; potency is the fitted concentration of half-maximal effect; tags give direction and shape of the fitted curve.

Test: qHTS Assay for Inhibitors of Hepatitis C Virus (HCV)
Conditions: Huh7.5.1 HCVcc-Cre (HCVcc is cell-culture hepatitis C virus) infection, luciferase reporter, 44 h; activity change, negative = inhibition: at 41.8 µM (top of the series) unless noted
How it was run: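 Infectious HCV cell culture screen: compound-treated cells (1,000/well, pre-plated 4 h) are infected with HCVcc-Cre at roughly 0.5 moi and grown 44 h. Infection is quantified by luciferase signal after 15 min substrate incubation at room temperature.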
In the case of `O=C(CSc1ccc2nnc(-c3cccc(F)c3)n2n1)NCc1ccco1`, the Potency was inconclusive [inhibitor, partial curve].
For `COCC(=O)Nc1nc(-c2ccc(-c3ccccc3)cc2)cs1`, the Potency was inconclusive [inhibitor, single point].
For `COc1ccccc1-n1c(SCC(=O)NCC2CCCO2)nc2c([nH]c3ccccc32)c1=O` (stereo not given), the “activity change, negative = inhibition” value was inactive: -25.9%.
In the case of `CC(Sc1nnc(Cc2ccccc2)o1)C(=O)NC1(C#N)CCCCC1` (stereo not given), the “activity change, negative = inhibition” value was inactive: -7.16%.
With `Cc1cnc(C(=O)OCC(=O)C23CC4CC(CC(C4)C2)C3)cn1` the “activity change, negative = inhibition” value was inactive: 8.75%.
For `COCCNC(=O)C1CC(c2ccc(C(F)(F)F)cc2)=NO1` (stereo not given), the “activity change, negative = inhibition” value was inactive: 6.92%.
With `C=CCN(CC=C)S(=O)(=O)c1ccc(NC(=S)NC(=O)c2ccco2)cc1` the Potency was inconclusive [inhibitor, single point].
For `COc1ccc(C(=O)Oc2ccc3ccc(=O)oc3c2)cc1`, the “activity change, negative = inhibition” value was inactive: 2.09%.
For `Cc1ccc(-c2cc(C(=O)N/N=C/C=C/c3ccccc3)n[nH]2)s1`, the Potency was inconclusive [inhibitor, single point].
With `CC(C)NC(=O)NC(=O)COC(=O)/C=C/c1ccccc1[N+](=O)[O-]` the Potency was inconclusive [inhibitor, partial curve, poor fit].
In the case of `COCCNCCCCSc1ccc(Cl)cc1`, the Potency was inconclusive [inhibitor, single point].
In the case of `S=C(NCc1ccc2[nH]c3c(c2c1)CCCC3)Nc1ccccc1Cl`, the Potency was inconclusive [inhibitor, single point].
For `Cc1c(N(C)S(=O)(=O)c2cccc(C(=O)NCC3CCCO3)c2)c(=O)n(-c2ccccc2)n1C` (stereo not given), the “activity change, negative = inhibition” value was inactive: 17.9%.
In the case of `CCN(CC)C(=O)C1CCCN(c2ccc([N+](=O)[O-])cc2/C=N/NC(=O)c2cccc(Br)c2)C1` (stereo not given), the Potency was inconclusive [inhibitor, partial curve].
For `Cc1cc(Cl)ccc1Oc1ncc(CN2CCN(c3ccccc3)CC2)s1`, the Potency was inconclusive [inhibitor, single point].
For `Cc1ccc(S(=O)(=O)N(C(=O)c2ccncc2)c2ccc(OC(=O)c3ccncc3)cc2)cc1`, the “activity change, negative = inhibition” value was inactive: 4.38%.
With `Cc1[nH]n(-c2cccc(Cl)c2)c(=O)c1C=NCC(C)C` the Potency was inconclusive [inhibitor, single point].
For `COc1cc(OC)c(NC(=O)C2CC(=O)N(c3ccc4c(c3)OCCO4)C2)cc1Cl` (stereo not given), the Potency was inconclusive [inhibitor, partial curve].
With `COc1ccccc1N1CCN(CC(=O)c2ccc(F)cc2)CC1` the “activity change, negative = inhibition” value was inactive: -9.15%.
For `COC(=O)C1=C(C)NC(=O)/C1=C\c1cc(C)n(-c2c(C)cccc2C)c1C`, the Potency was inconclusive [inhibitor, full curve, poor fit].
With `Cc1ccccc1C(=O)NNC(=S)NC(=O)c1cccs1` the Potency was inconclusive [inhibitor, single point].
For `CCN(CC)CCOC(=O)C1(C2CCCCC2)CCCCC1`, the Potency was “inactive”.
For `CCCCN(CCCC)Cc1ccc(C(=O)NNC(=O)Nc2ccc(Cl)cc2)o1`, the Potency was inconclusive [inhibitor, single point].
In the case of `Cc1ccccc1-n1nc(CSc2nc3ccccc3[nH]2)c(-c2ccccc2)c1N`, the Potency was inconclusive [inhibitor, full curve].
In the case of `CCOC(=O)c1cc2sccc2n1CC(=O)OC`, the “activity change, negative = inhibition” value was inactive: 10.1%.
In the case of `O=c1c2ccccc2n(Cc2ccc(Cl)cc2)c(=O)n1Cc1ccco1`, the “activity change, negative = inhibition” value was inactive: 8.28%.
With `Cc1ccc(CNC(=O)CN2C(=O)NC(C)(c3cccc(Br)c3)C2=O)cc1` (stereo not given) the Potency was inconclusive [inhibitor, partial curve].
In the case of `CCSc1nnc(-c2cccc(S(=O)(=O)N(C)C)c2)n1-c1cc(OC)ccc1OC`, the Potency was inconclusive [inhibitor, partial curve].
With `COc1ccc(-c2cc3c(=O)n(CC(=O)NCCCN4CCN(Cc5ccccc5)CC4)ncn3n2)cc1` the Potency was inconclusive [inhibitor, single point].
With `CCOC(=O)c1ccc(N2C(=O)CC(N3CCC(C#N)(c4ccccc4)CC3)C2=O)cc1` (stereo not given) the “activity change, negative = inhibition” value was inactive: 11.3%.
With `C#CC[N+]1(CC#Cc2ccc(C)cc2)CCCCC1` the Potency was inconclusive [inhibitor, partial curve].
With `COc1cc(NC(=O)CSc2nc3[nH]ncc3c(=O)n2-c2ccc(Cl)cc2)cc(OC)c1` the Potency was inconclusive [inhibitor, single point].
For `O=[N+]([O-])c1ccc(NS(=O)(=O)N2CCOCC2)cc1`, the “activity change, negative = inhibition” value was inactive: 2.73%.
For `O=C(NC1CCCC1)C(Cc1ccccc1)n1cccc1` (stereo not given), the “activity change, negative = inhibition” value was inactive: 0.691%.
With `CCOc1ccccc1C(=O)N(CN1CCCC1=O)c1ccc(C)c(Cl)c1` the Potency was inconclusive [inhibitor, single point].
For `CCCCN(C)Cc1cc(=O)oc2cc3c(cc12)CCCC3`, the Potency was inconclusive [inhibitor, partial curve].
For `O=C(Cc1ccc(S(=O)(=O)N2CCOCC2)s1)Nc1cc(C(F)(F)F)ccc1N1CCCC1`, the Potency was inconclusive [inhibitor, single point].
With `CCCC(=O)NC(=S)Nc1nc(-c2ccc(OC)cc2)cs1` the Potency was inconclusive [inhibitor, single point].
In the case of `O=c1c2cc(-c3ccccc3)sc2nc2n1N=C(c1cccs1)CS2`, the Potency was inconclusive [inhibitor, full curve, poor fit].
With `COc1cccc(C=NNC(=O)C(C)SC(C)C(=O)NN=Cc2cccc(OC)c2)c1` (stereo not given) the activity change, negative = inhibition was inconclusive: -50% [inhibitor].
For `Cc1ccc2c(c1)[C@H]1[C@H](CO2)[C@H](c2ccccc2)[C@]2(C)C(=O)N(Cc3ccc(F)cc3)CC(=O)N12`, the Potency was inconclusive [inhibitor, partial curve].
For `Cc1cc(-c2n[nH]c(=S)n2-c2ccccc2C)cs1`, the “activity change, negative = inhibition” value was inactive: -17.1%.
For `COc1ccc(CCNC(=O)c2ccc(CSc3ccccc3)o2)cc1`, the Potency was inconclusive [inhibitor, single point].
With `COc1ccc2cc(CN(CCc3ccccc3)Cc3nnnn3Cc3ccco3)c(=O)[nH]c2c1` the “activity change, negative = inhibition” value was inactive: -6.12%.
In the case of `CCOC(=O)c1cc(CC)sc1NC(=O)Cc1ccsc1`, the Potency was active: 5.62 µM.
